The list shows a part of the results. At the low end of the ranking the order means little. The protein was read in a cell extract, so binding may be indirect.

The target of the assay is T1, HNF4alpha8 (COS-7 nuclear extract) (UniProt P41235-5).
T1 sequence: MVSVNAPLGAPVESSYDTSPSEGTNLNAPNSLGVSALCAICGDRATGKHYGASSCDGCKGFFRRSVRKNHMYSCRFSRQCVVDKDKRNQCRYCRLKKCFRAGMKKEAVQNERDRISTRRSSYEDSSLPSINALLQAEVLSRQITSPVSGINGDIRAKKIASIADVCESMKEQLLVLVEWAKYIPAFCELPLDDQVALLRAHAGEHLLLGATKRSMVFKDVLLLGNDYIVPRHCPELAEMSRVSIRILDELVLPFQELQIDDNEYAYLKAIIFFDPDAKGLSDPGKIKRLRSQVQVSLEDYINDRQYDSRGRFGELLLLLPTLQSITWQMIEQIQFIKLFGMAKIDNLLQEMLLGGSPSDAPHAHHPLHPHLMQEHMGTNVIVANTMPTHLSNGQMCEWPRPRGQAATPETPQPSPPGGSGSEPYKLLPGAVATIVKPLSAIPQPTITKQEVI
As to the kind of experiment: protein-binding microarray. The note with it: COS-7 nuclear extract on double-stranded Agilent 4x180k PBM; binding buffer, salt, pH and temperature not given; high values mean tight binding; double strand, one strand shown; sequences stand for … in …GCCTAGGGAGATTAGAGTATCGGTCGA
With AAGCAGCTGTGATGAGGCCAGCAGGGTGCC, the binding signal (log2 normalized intensity) was -1.17.
Turning to GAACCCCCAGGTCACCCACAACCTACCCTT, the binding signal (log2 normalized intensity) came to 4.85.
The same measure for CTTTGGCCGTGCATGCTTGGACTCTGAAGG: 3.77.
The same measure for CCCTGTTATTAGTCCAAGAGATTTCTACAG: 0.355; for GTCATAATTTGATCCAGTGTGCAAATGTGT: 2.05; for AAAAAGATGGTCTTACAACATAGTGATTTA: 0.209.
The same measure for GGACTTTGGGCTGTGTTTTGCCCCTGCAGA: 4.12.
With TCTGTTCATTGATAAAGGGTTACAAACTTC, the binding signal (log2 normalized intensity) came out at 0.93.
Consider GACTGGCATTCCCCTATGTCTAGGACTCTA, for which the binding signal (log2 normalized intensity) came to 1.25.
Next, GAGGGCATGTTGAGTGGAATATGAGGTCAG: 2.24; TTAGGAGGATGACAAAGAGCAAGTGACCCT: 4.46; GAAACAGTCTGATTCTAGGGCCCATGCCCT: 0.766.
Next, TCCAGGGCCGCCCAAGCGAATATGTCAGGC: -1.39.
The same measure for TTTCTTCCCTAATGGACATCTCTAGGAACT: -1.33; for TAGGAATCACACAACTTTCATTGAACTGCT: -1.22.
On to ATGCAGCCTTGGGCAAGTTACTTAAGCCAT, for which the binding signal (log2 normalized intensity) was -1.44.
Next, TTTCTGAGAAACTTCTTTGTGATGTGTGGA: 2; TGCAAGCAAACCTGCCCTTTGCTCCAGAGG: 4.45; GGTCAATGTCCACACCCCAGTTTCATCAAC: 2.8.
The same measure for CCAGGTCGAAGTTTATGTTTACTGTGGATC: 2.18.
The same measure for TCACTCAGTCCACATGGTGTCTTTTGTTGT: 2.06; for TTCAATGGTGCTTTTGATATTGTTGTAAAG: 1.77.
For the sequence GTGGTCATGTAGGTGTCTCAGGAATGTCCT, the binding signal (log2 normalized intensity) is 1.81.
Next, GGATGGGGTCACGAGACGGTGTCCCTGGCC: 0.531; GTGCACCCTTCCTCTGCAGCCGCCCTTTTG: 2.25; TTTCATCTCTGTAAACTGGCCAGAAGGTCA: 3.39.
Next, GGTTGTGAGGGAGGGCACAGGCAACAGAGG: -1.34; CCCTTTGACCTCTGCTTCCTGCTACAGAGC: 2.76; CACCTTCTTCCTAGGCAATCCCATGACCTT: 3.52.
TGGGACCATGAGTACCAGGTCAAAAGTTCA: the binding signal (log2 normalized intensity) is 4.74.
Next, GTCACCTCCACCCACCCGTGCATCAACATA: 3.46.
The same measure for GCATGCTATTTCAGGAATGTGACCCCTTTC: 5.65; for GCCCAACAGCATTAAGCTGAGGCAGAGTTG: -1.26.
For TCCTCCAACTGCCACGGTAAATATTATCAT, the binding signal (log2 normalized intensity) is 0.355.
The same measure for AAAGAGGGTGTAAGAGTGAACTCTGACCAT: 4.94; for TGAGAAAAGAACCATGAGAGGGTTAAAAAC: -1.11.
Turning to ACATTCTGAGCCAGCACTTCGACCTCACAT, the binding signal (log2 normalized intensity) came to 2.44.
On to AAGCAATGGCTACCAAGGAGTGGACTGTTC, for which the binding signal (log2 normalized intensity) is 2.02.
Next, GACAGGAGGTATGCCAGGAATGCTGAGGAG: -1.26; CTTCCACCCACTTTATCTTCTATAGGAATT: 0.738.
For TATCCAATAAAACACTATCTTCTTTCAGTG, the binding signal (log2 normalized intensity) was determined as 0.405.
As for TTTATTTAGCCTCACTAAGATAGGGAAGCT, the binding signal (log2 normalized intensity) was -1.37.
Next, TCTGCAGGGTTAAATCTCGGTATAATTCCT: -1.05; TTTGGAATTAAGGAGATTTGGCTTTGAATT: -1.08.
In the case of CCTCCTCTCTGAGCAGTCAAACTGGTTTCT, the binding signal (log2 normalized intensity) worked out at 0.708.
As to CCCCTCAGTTTTTCTCTTTTGACCTTTGGA, the binding signal (log2 normalized intensity) was 9.54.
For AAGTCCAGTCTTATCTGAGACTCAAGGCAA, the binding signal (log2 normalized intensity) was -1.17.
AAACAAATTTAGCAAGACTGCAAAATAGAC: the binding signal (log2 normalized intensity) is -1.22.
The same measure for AGGGATGGGAACCGACCTTTGGTTCCTGAA: 5.61; for TTTCATCTTCTTAGCCTTTGAACCCCACAC: 5.48; for CTTCACATATTTTGAAAGAAAGAGACCTTT: 4.58.
On to GATAGCTCAGGGATTAACGACTCATGAAGA, for which the binding signal (log2 normalized intensity) is -1.35.
With TTCCAGGATGAAGGAAGAGGGAAGACCAAA, the binding signal (log2 normalized intensity) was -1.23.
The same measure for ACAAATGAGCAAACTAATGGAATGTGATAG: -0.665.
Take ACCGCTCACTGCTCCAGCCACTCATTCTTG: the binding signal (log2 normalized intensity) was -1.35.
For the sequence CAGGCCCCAGGGACTTTGGCCTTACTTGGC, the binding signal (log2 normalized intensity) was determined as 4.92.
With CCTGAGGCTGTGGAGGGCAGTGGATGGGGG, the binding signal (log2 normalized intensity) is -1.29.
In the case of AGCCAATATTTGCAAGGCTGTTGGCAGATT, the binding signal (log2 normalized intensity) is -1.13.
In the case of CCTTTACCCTGACCTGTCAAGCAATGATCT, the binding signal (log2 normalized intensity) was 1.39.
The same measure for TGACACTCGAGGATCAGAGACACGATGTTC: -1.29; for TGTGATCTCTAGACTAAGGGCACAGGGTGA: 0.175; for CCACAACAGAACCTTGTTTTGTCTTCTGTT: 0.586.
Next, GTTCCAGCTGCTTCAGGAGCCCCCTGGGGG: -1.33; AAGGCGGAAGTACTGCCCTTAACTCCCGGC: -1.22; GCCAAAAGTAGGGAGGAGGGGAGGGGCCCA: -1.37.
Next, GGGGAGGGCATGGACTTTGGAATTAAGGAG: 5.91; GGCTCAGGACAGGTGAGCCCGGCAGAGAGT: -1.24; TCAACCTTCATTCTCATCTTCTATGATAAG: 1.16.
Take CGACCTCCCCGTCACCCTCCCCGCCACCCC: the binding signal (log2 normalized intensity) is 7.01.
Next, CATAACTGACTGTGTCTGTTTACCCACTTG: 0.804; CACAGTACTGTCTTTTTGCCACTAGGGGTC: 3.77; GTGATTTATGAAGGGGGGTGGGGAGGCAGG: -1.35.
Turning to TGGTGGAGCAAAAAGGCCGTTCAAAGGCAG, the binding signal (log2 normalized intensity) is -1.26.
The same measure for AGAGACAGAGAGAGAGAGAGAATGACCCTT: 5.1.
Turning to GTTCATTTTACAATGCAAACCTAACAGGCT, the binding signal (log2 normalized intensity) is -1.28.
The same measure for AACTCTAGTGATCTTATCAGCAAGGGCATT: 1.09.
Next, CCCTTGTCTTCCTCAAATTACAAAAGGAGT: 1.39; CCACTAGCAACAGCTGCAGTGAAATTCTGG: -1.31; CTTGGCTAACAAAGCTCAGGGCAAAGACTC: -1.38.
The same measure for TCAGTTTCATTGCACTTTGCCCTCTCTTCA: 7.35; for AGTCAACATGTCATTGGCAGAAGGTGGAAC: 1.54.
On to GCCAACAAACTCAATCCTGGCCTCTGAGGT, for which the binding signal (log2 normalized intensity) was -1.4.
Next, GCTCCTTTGAGCACTGCTGACTGTTTGCTT: 1.02; ACAATAGGAATTCAACCAATGTGGAGCTGC: -1.32.
The same measure for CCAGGTGTGCAGAGAGCAAACGAACCGGCA: -1.25.
CTCCCTAGAGCAGCAGTAGGCTCTCGGGCC: the binding signal (log2 normalized intensity) is -1.22.
For TTTTTGAGATGGAATCTTGCCCTGTCGCCC, the binding signal (log2 normalized intensity) came out at 3.19.
Next, CAAGGGTTCAGGGCTCAGTTGACATGATAC: 1.55; CCCCGGGAGCAGCATGGCCCTTTGCAGCCC: -0.469; GGGCAAGCCCACTCTCTGAGTCTGATAAGG: -1.35.
Next, TAAATATGTTCCAAAGTTCAACCAGATGAT: 3.63; AGGTAGAGAGCTGTCTGCTGAGGATGTGGC: 0.382; GCTGTGATGTTTGCCCATGATCATATGGAC: 2.29.

The record behind these values is publication PMC10726135.
